Over roughly 33,000 sequences, “E-score (-0.5 to 0.5)” has its median near -0.013; the highest 2% begin near 0.3. The list shows a part of the results.
target: T1, Msn1 (UniProt P22148); test: PBM E-score (8-mer binding enrichment) (E-score (-0.5 to 0.5)); higher = stronger / more preferred TF binding; most listed sequences are background and not binding sites; conditions: protein concentration: 200 nM; construct: GST-full length
T1 sequence: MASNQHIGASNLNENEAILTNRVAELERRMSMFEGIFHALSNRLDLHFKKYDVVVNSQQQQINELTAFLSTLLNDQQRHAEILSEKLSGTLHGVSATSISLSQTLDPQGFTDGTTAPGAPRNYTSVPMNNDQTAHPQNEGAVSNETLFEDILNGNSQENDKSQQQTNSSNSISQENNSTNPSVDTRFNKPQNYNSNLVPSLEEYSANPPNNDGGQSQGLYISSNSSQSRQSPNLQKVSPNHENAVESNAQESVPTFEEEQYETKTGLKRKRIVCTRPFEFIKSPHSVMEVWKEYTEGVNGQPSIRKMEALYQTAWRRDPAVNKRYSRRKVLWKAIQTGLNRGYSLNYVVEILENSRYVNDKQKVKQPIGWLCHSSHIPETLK
Method in brief: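 For each ungapped eight-base word taken together with its reverse complement, the Universal PBM Analysis Suite assigned an E-score. Binding data came from GST-tagged yeast transcription factors, applied at about 100-200 nM, on universal all-10-mer Agilent arrays made double-stranded by primer extension. Fluorescent anti-GST marked bound protein, and scans were normalised with masliner.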

| Sequence | PBM E-score |
| --- | --- |
| CTGTGGCC | -0.297 |
| GACCGTGA | -0.0454 |
| CACCCATC | -0.0828 |
| AAAGCAAA | 0.112 |
| CCTGGCCC | -0.306 |
| CTCAATCA | -0.0211 |
| AATCTGCT | 0.0105 |
| AGGTTGCC | -0.18 |
| AGGCACCT | -0.167 |
| CTAAGTAA | 0.00474 |
| ACGTAACG | 0.0298 |
| CTCCGTCA | -0.128 |
| AGTGGGTC | -0.35 |
| AGCGCAAG | -0.0435 |
| AAAATGAT | 0.227 |
| TAATGATA | 0.0644 |
| GGTGCCAC | -0.122 |
| CGCTGCGA | 0.0869 |
| CTTTCCCA | -0.0983 |
| ACGCTCTA | -0.242 |
| CCGTTACG | -0.0788 |
| GACGAGTC | 0.0672 |
| AGCGTAAC | 0.0686 |
| AAAGTTGG | 0.0281 |
| AGCCAACT | -0.194 |

| Sequence | PBM E-score |
| --- | --- |
| GAGCGTAA | -0.0204 |
| ACGCCGAT | -0.0633 |
| GGAAGACC | -0.218 |
| AACTGATT | 0.0951 |
| CACATAAG | -0.0961 |
| GCAAAGGC | -0.262 |
| ATTAGAAA | 0.0845 |
| CACCGGGA | -0.178 |
| AGTATACT | -0.307 |
| CCGCCCTA | -0.144 |
| AATACGAA | 0.0224 |
| CATTTAGC | -0.108 |
| GTAGAAGA | -0.0168 |
| CACAACCC | -0.139 |
| GAAGAGAC | 0.16 |
| AACAGCTA | -0.0494 |
| AGCGTGCG | -0.0744 |
| CCATATAA | 0.124 |
| ATAAAAGC | 0.0126 |
| GATGAGGC | -0.314 |
| AGTGGTTC | -0.131 |
| TTACCAAA | -0.064 |
| GACGTATA | -0.06 |
| ACGTCAGT | -0.104 |
| CACGCCAA | -0.0546 |

| Sequence | PBM E-score |
| --- | --- |
| CACGTCGG | -0.0401 |
| CAATCGGA | 0.174 |
| CCTGTACG | -0.0119 |
| AGTGTCGG | 0.202 |
| CACCCCTG | -0.325 |
| ACCGTAGG | -0.25 |
| AATCGTCA | 0.0854 |
| GCCCGCGC | 0.0392 |
| CAGGCAGG | -0.171 |
| AATCGTGA | -0.0293 |
| CGCGTTAA | 0.126 |
| CGGCGACG | 0.0965 |
| CCTATCCG | -0.185 |
| TACATACA | 0.207 |
| GATGATAC | -0.0724 |
| ATAAACGG | 0.15 |
| AGAAAAGG | 0.0226 |
| GCTAATAA | -0.0698 |
| GGCGAGCA | -0.0323 |
| GTCTAAAA | 0.156 |
| CCGGTGAG | -0.156 |
| CGCGGTTA | 0.0222 |
| ACGTTTTG | 0.00464 |
| AAAGGTGA | 0.0494 |
| GGATTGCA | -0.0706 |

| Sequence | PBM E-score |
| --- | --- |
| GGGAGATA | -0.196 |
| AGTATGAT | 0.101 |
| TCATCGAA | -0.0107 |
| CCGATCGC | 0.0345 |
| CGAACACA | 0.0753 |
| AGAGAATC | -0.0743 |
| CGCTAAGA | -0.118 |
| ATGCATAG | 0.0299 |
| CCGTGTAG | -0.109 |
| GCGTAAGC | -0.337 |
| CAGCTATA | -0.0985 |
| CGCGTGCA | -0.18 |
| CGAATCAA | 0.175 |
| CTCAGTCC | -0.0157 |
| CAACCATA | -0.104 |
| GAATTCCC | 0.0167 |
| ATACTAAG | 0.103 |
| CCTTGCCA | 0.0681 |
| ATGCTGCC | -0.115 |
| CCGAGAAA | 0.219 |
| ACTAGCAG | 0.00056 |
| CTGTAGTC | -0.112 |
| AGCTCTAC | -0.104 |
| GGTAATAC | 0.0852 |
| ATAAGTTA | 0.024 |

| Sequence | PBM E-score |
| --- | --- |
| CCAGCAGC | -0.167 |
| AGGGTCAA | -0.00408 |
| ACCGATAA | 0.157 |
| AGCCCTTA | -0.105 |
| GTCGTAAC | -0.0291 |
| GAAGCGCA | -0.0292 |
| GCCTCTAC | -0.132 |
| AGATTATC | -0.0624 |
| AGTCCACG | -0.059 |
| ATTACCGA | 0.138 |
| CACATTCG | 0.0622 |
| ATCGGTGA | 0.107 |
| AGCGAAGG | -0.12 |
| CCGTTATC | 0.129 |
| CTCCCTAA | -0.229 |
| AATGCTCA | -0.0432 |
| CCCTAGCG | -0.35 |
| ACAATCAA | 0.0284 |
| GACGGAGC | -0.156 |
| AACGACAA | 0.262 |
| AAATGATG | 0.226 |
| ATAGATTA | 0.153 |
| GCCCGAAA | 0.186 |
| CCGCTTTA | -0.0465 |
| GGGTGTTA | 0.0537 |

| Sequence | PBM E-score |
| --- | --- |
| AGACGCTG | -0.278 |
| GCCGTCCA | -0.13 |
| CATCGCAG | -0.00146 |
| CGCGAACA | 0.113 |
| CTTTCCGA | 0.122 |
| ATGACCGC | -0.19 |
| ACTGATCA | 0.0523 |
| AATTGCTC | -0.044 |
| AGGTATGA | 0.0198 |
| ATGCAACG | -0.0419 |
| ACAACGTC | -0.114 |
| GGCTTCCA | -0.289 |
| ATGATAAC | 0.155 |
| GATGAGCC | -0.173 |
| GACGGTAC | 0.0456 |
| CAGATCTA | 0.0932 |
| ATCACATA | 0.0742 |
| CACCATGA | -0.0369 |
| CACGGGTC | -0.076 |
| CGCCCCTC | -0.323 |
| GGATTCCA | 0.183 |
| CTTACATC | 0.0126 |
| GAGACGGA | -0.0328 |
| TACCGTGA | -0.128 |
| ATAGAGCG | -0.0637 |

| Sequence | PBM E-score |
| --- | --- |
| CTTGAGTC | -0.0248 |
| ATGGTGCA | -0.12 |
| ACTGTCAA | 0.0974 |
| CTGACTTA | 0.069 |
| ACTTCTCT | -0.0383 |
| AATTGCCC | 0.0445 |
| AGCAGGCT | -0.236 |
| ATCGCCCG | -0.112 |
| ACCGGTCA | -0.0314 |
| CCAGAACG | 0.151 |
| GAGTCCAA | -0.0901 |
| GTACGCAC | -0.121 |
| CCATCGTC | -0.186 |
| CACTGGTA | -0.102 |
| ATCACTAG | -0.0267 |
| GGTACACC | -0.204 |
| AATAGAAT | 0.0217 |
| CAGAAAAC | 0.0413 |
| GTCAACAC | 0.00323 |
| ACGGCTCG | 0.0879 |
| AATGTACT | 0.364 |
| CTAGTCCC | 0.143 |
